Experimental data published in PubChem BioAssay AID757 (NMMLSC, 2007).
The campaign covered roughly 190,000 compounds. About 520 (0.27%) were called active. Inconclusive means that the source gave no clear call. Such entries were picked first, then a sample of the others.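 Rule for the calls: active = GTP binding activity at least 20 points away from the 100% control level, either lower or higher; inconclusive = compound flagged as likely green fluorescent, judged across all proteins; inactive = the rest.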

These molecules were tested against Ras-related C3 botulinum toxin substrate 1 (Homo sapiens) (UniProt P63000) (assay: wildtype Rac1 GTP binding modulators, primary screen, biochemical, GST-Rac1 beads, flow cytometry, multiplex (AID 757)). Conditions: fluorescent GTP binding, at 10 µM, actives lie on both sides, 0 = cold GTP competed, 100 = untreated.
With `COc1ccc(-c2nnc(SCC(=O)NNC(=O)Cc3ccccc3)n2C)cc1OC` the GTP binding activity (% of control) was inconclusive: 104%. `COCC(C)n1c(=O)sc2ccccc2c1=O` (stereo unspecified) was tested, and the GTP binding activity (% of control) was inactive: 94%. `COc1ccc(Cl)cc1NC(=O)CN(C1CCCCC1)S(C)(=O)=O` was tested, and the GTP binding activity (% of control) was inconclusive: 108%. In the case of `CNS(=O)(=O)c1cc2c3c(cccc3c1)C(=O)NC2=O`, the GTP binding activity (% of control) was inconclusive: 92%. `O=C(O)COc1ccccc1/C=N/NC(=O)c1cc(-c2ccc(F)cc2)nc2ccccc12` was tested, and the GTP binding activity (% of control) was active: 78%. In the case of `Cc1nnc(SCC(=O)NCc2ccccc2)[nH]c1=O`, the GTP binding activity (% of control) was inconclusive: 100%. For `CCc1nnc(NC(=O)CSc2nc(-c3ccccc3)cc(-c3ccc(OC)cc3)c2C#N)s1`, the GTP binding activity (% of control) was inactive: 104%. For `CN1CCc2c(sc3c2c(=O)n(-c2ccccc2)c2n[nH]c(=S)n32)C1`, the GTP binding activity (% of control) was inactive: 99%. For `COc1nc(-c2ccccc2)ccc1-c1noc(COc2ccccc2)n1`, the GTP binding activity (% of control) was inconclusive: 89%. With `N=c1c2c3c(sc2ncn1CCCO)CCCC3` the GTP binding activity (% of control) was inconclusive: 105%. In the case of `Cc1cc(C)c(S(=O)(=O)Nc2cccc(S(=O)(=O)NC3=NCCC3)c2)c(C)c1`, the GTP binding activity (% of control) was inactive: 99%. With `CC(C)CSc1nsc(N)n1` the GTP binding activity (% of control) was inconclusive: 105%. With `CCCCOC(=O)C1CCCC(C)N1` (stereo unspecified) the GTP binding activity (% of control) was inconclusive: 106%. For `CCCNS(=O)(=O)c1ccc2c(c1)CCCN2C(C)=O`, the GTP binding activity (% of control) was inconclusive: 107%. `Cc1cccc2c(CCNC(=O)c3ccc([N+](=O)[O-])cc3)c[nH]c12` was tested, and the GTP binding activity (% of control) was inconclusive: 101%. For `COc1cc(/C=C2/C(=N)N3C=CSC3=NC2=O)ccc1OCCCOc1ccccc1C`, the GTP binding activity (% of control) was inconclusive: 105%. In the case of `CCOC(=O)NC(Nc1ccc(S(N)(=O)=O)cc1)(C(=O)OCC)C(F)(F)F` (stereo unspecified), the GTP binding activity (% of control) was inconclusive: 113%. With `Cc1ccc(C(=O)C(OC(=O)CCC(=O)Nc2cccc(C)c2)c2ccccc2)cc1` (stereo unspecified) the GTP binding activity (% of control) was inconclusive: 109%. In the case of `CCCCn1c(N)c(N(CC)C(=O)C(c2ccccc2)c2ccccc2)c(=O)[nH]c1=O`, the GTP binding activity (% of control) was inconclusive: 128%. `O=C(CSc1nnc(-c2ccccc2)c(-c2ccccc2)n1)Nc1ncc(Cl)cc1Cl` was tested, and the GTP binding activity (% of control) was inconclusive: 108%. With `CCCCNC(=O)C1(c2ccc(OC)cc2)CCOCC1` the GTP binding activity (% of control) was inactive: 108%. For `O=C(CSc1ccc2nnc(-c3ccccn3)n2n1)Nc1ccc2c(c1)OCO2`, the GTP binding activity (% of control) was inconclusive: 81%. `O=S(=O)(/N=C/N1CCOCC1)c1ccc(Cl)cc1` was tested, and the GTP binding activity (% of control) was inconclusive: 98%. For `Cn1c(SCc2nnc(-c3ccccc3)o2)nc2ccccc21`, the GTP binding activity (% of control) was inactive: 102%. In the case of `CCOC(=O)C1CCN(C(=O)c2ccco2)CC1`, the GTP binding activity (% of control) was inconclusive: 103%. With `COCCNC(=O)c1cc(C(=O)CC(C)C)c[nH]1` the GTP binding activity (% of control) was inactive: 100%.
